Experimental data as given in article PMC7977449.
Like-named read-outs stand apart in the source and are kept apart here. No constants are given. Whether binding was seen depends on the method and setting. Binding seen in cells or lysates may run through a third protein. Some results given as binding are weak or reduced against the parent protein; the word gives no strength. For some assays here: Tags and fused reporters may be left off the sequences shown. One block for each molecule: values may come before it.

Sequences of proteins named here, by UniProt entry; tags and fusion partners are left off.
UniProt P42224: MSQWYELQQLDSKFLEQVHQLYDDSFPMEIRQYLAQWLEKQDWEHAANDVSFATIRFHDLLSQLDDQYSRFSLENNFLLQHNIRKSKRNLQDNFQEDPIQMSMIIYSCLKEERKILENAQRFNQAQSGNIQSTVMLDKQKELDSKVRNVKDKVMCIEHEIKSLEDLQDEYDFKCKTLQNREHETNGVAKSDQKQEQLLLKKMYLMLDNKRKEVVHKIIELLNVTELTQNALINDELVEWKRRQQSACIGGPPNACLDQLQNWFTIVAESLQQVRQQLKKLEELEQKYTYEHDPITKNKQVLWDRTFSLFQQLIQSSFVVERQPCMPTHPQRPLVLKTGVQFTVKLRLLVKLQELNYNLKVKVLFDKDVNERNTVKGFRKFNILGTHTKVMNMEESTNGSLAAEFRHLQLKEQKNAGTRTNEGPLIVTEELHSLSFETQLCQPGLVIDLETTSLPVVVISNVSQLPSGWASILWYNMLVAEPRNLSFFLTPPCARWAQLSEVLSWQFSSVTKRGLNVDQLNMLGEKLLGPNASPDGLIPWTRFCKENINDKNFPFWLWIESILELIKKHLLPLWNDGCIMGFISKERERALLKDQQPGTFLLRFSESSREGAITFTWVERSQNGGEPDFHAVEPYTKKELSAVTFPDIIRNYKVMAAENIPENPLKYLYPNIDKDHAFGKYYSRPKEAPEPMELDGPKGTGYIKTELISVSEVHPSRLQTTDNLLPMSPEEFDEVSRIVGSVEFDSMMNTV
UniProt P40763: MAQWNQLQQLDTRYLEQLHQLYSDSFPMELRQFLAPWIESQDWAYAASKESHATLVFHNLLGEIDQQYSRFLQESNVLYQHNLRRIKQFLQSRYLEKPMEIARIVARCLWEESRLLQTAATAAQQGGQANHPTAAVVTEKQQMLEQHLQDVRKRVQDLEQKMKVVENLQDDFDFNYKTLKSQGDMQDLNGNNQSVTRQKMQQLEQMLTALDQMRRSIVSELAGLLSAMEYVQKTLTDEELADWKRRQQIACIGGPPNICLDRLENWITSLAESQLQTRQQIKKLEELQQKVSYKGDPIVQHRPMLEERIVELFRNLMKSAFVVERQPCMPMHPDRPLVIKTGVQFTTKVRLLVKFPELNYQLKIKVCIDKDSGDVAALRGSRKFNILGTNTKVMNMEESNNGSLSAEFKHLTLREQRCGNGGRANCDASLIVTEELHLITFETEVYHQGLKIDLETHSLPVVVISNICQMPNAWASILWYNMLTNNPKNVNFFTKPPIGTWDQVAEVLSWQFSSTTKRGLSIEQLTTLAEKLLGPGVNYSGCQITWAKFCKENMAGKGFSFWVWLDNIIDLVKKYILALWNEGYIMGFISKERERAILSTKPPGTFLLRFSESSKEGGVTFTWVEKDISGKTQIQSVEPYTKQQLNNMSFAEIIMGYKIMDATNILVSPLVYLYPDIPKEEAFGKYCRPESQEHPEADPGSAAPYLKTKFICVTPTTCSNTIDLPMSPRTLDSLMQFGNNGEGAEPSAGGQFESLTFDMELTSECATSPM

Legend:
myc-NLRC5 full length = myc-NLRC5 full length (UniProt Q86WI3); experiment: co-IP; HEK293T cells transfected with myc- and Flag-tagged plasmids; lysate immunoprecipitated with anti-myc or anti-Flag antibody, protein A/G agarose, western blot
[1] = molecular target: STAT1, endogenous in HUVECs (human (endogenous in HUVECs)) (UniProt P42224); experiment: co-IP; HUVECs stimulated with IFN-γ for 12 h; lysate immunoprecipitated with anti-STAT1 antibody, western blot
[2] = molecular target: signal transducer and activator of transcription 3 (STAT3), endogenous in HUVECs (human (endogenous in HUVECs)) (UniProt P40763); experiment: co-IP; HUVECs stimulated with VEGFA-165 for 0 or 12 h; lysate immunoprecipitated with anti-STAT3 antibody, protein A/G agarose, western blot
[3] = molecular target: STAT1, endogenous in HUVECs (human (endogenous in HUVECs)) (UniProt P42224); experiment: condition: only HUVECs treated with VEGFA-165 instead of IFN-γ; co-IP; HUVECs stimulated with VEGFA-165 for 12 h; lysate immunoprecipitated with anti-STAT1 antibody, western blot
STAT3-Flag [4] = molecular target: STAT3-Flag (UniProt P40763); experiment: co-IP; HEK293T cells transfected with myc- and Flag-tagged plasmids; lysate immunoprecipitated with anti-myc or anti-Flag antibody, protein A/G agarose, western blot
STAT3-Flag [5] = molecular target: STAT3-Flag (UniProt P40763); experiment: as above; remark: listed apart in the source

Molecule: Flag-STAT1 (from UniProt P42224 1-750)
binding (myc-NLRC5 full length): binds

Molecule: myc-NLRC5 full length (from UniProt Q86WI3 1-1866)
binding (STAT3-Flag [4]): binds

B1: myc-NLRC5 DD+NACHT (1-539 aa) (domain or fragment, UniProt Q86WI3 1-539)
chain: MDPVGLQLGNKNLWSCLVRLLTKDPEWLNAKMKFFLPNTDLDSRNETLDPEQRVILQLNKLHVQGSDTWQSFIHCVCMQLEVPLDLEVLLLSTFGYDDGFTSQLGAEGKSQPESQLHHGLKRPHQSCGSSPRRKQCKKQQLELAKKYLQLLRTSAQQRYRSQIPGSGQPHAFHQVYVPPILRRATASLDTPEGAIMGDVKVEDGADVSISDLFNTRVNKGPRVTVLLGKAGMGKTTLAHRLCQKWAEGHLNCFQALFLFEFRQLNLITRFLTPSELLFDLYLSPESDHDTVFQYLEKNADQVLLIFDGLDEALQPMGPDGPGPVLTLFSHLCNGTLLPGCRVMATSRPGKLPACLPAEAAMVHMLGFDGPRVEEYVNHFFSAQPSREGALVELQTNGRLRSLCAVPALCQVACLCLHHLLPDHAPGQSVALLPNMTQLYMQMVLALSPPGHLPTSSLLDLGEVALRGLETGKVIFYAKDIAPPLIAFGATHSLLTSFCVCTGPGHQQTGYAFTHLSLQEFLAALHLMASPKVNKDTLTQ
binding (STAT3-Flag [5]): binds

B3: myc-NLRC5 DD (1-221 aa) (domain or fragment, UniProt Q86WI3 1-221)
chain: MDPVGLQLGNKNLWSCLVRLLTKDPEWLNAKMKFFLPNTDLDSRNETLDPEQRVILQLNKLHVQGSDTWQSFIHCVCMQLEVPLDLEVLLLSTFGYDDGFTSQLGAEGKSQPESQLHHGLKRPHQSCGSSPRRKQCKKQQLELAKKYLQLLRTSAQQRYRSQIPGSGQPHAFHQVYVPPILRRATASLDTPEGAIMGDVKVEDGADVSISDLFNTRVNKGP
binding (STAT3-Flag [5]): no binding

Second part, the molecule after the results:

binding [1]: binds
binding [2]: binds
binding [3]: no binding
Molecule: NLR family CARD domain containing 5 (NLRC5), endogenous in HUVECs (from UniProt Q86WI3 1-1866)

binding (STAT3-Flag [5]): no binding
B2: myc-NLRC5 NACHT (222-539 aa) (domain or fragment, UniProt Q86WI3 222-539)
chain: RVTVLLGKAGMGKTTLAHRLCQKWAEGHLNCFQALFLFEFRQLNLITRFLTPSELLFDLYLSPESDHDTVFQYLEKNADQVLLIFDGLDEALQPMGPDGPGPVLTLFSHLCNGTLLPGCRVMATSRPGKLPACLPAEAAMVHMLGFDGPRVEEYVNHFFSAQPSREGALVELQTNGRLRSLCAVPALCQVACLCLHHLLPDHAPGQSVALLPNMTQLYMQMVLALSPPGHLPTSSLLDLGEVALRGLETGKVIFYAKDIAPPLIAFGATHSLLTSFCVCTGPGHQQTGYAFTHLSLQEFLAALHLMASPKVNKDTLTQ
